19 molecules from the supplement of paper PMC10369915 can be followed below.

The list shows a part of the results. Cut-off read from the data, not from the text of the source: active = 3.2 or more and inactive = the rest. Only a few entries rise above the background.

Among the targets are SHP2 C-SH2 domain E139D; SHP2 N-SH2 domain L43F; SHP2 N-SH2 domain T42A; SHP2 N-SH2 domain T52S.
Assay in all cases: enrichment score (SH2-bound / input frequency) (ratio); bacterial display of known human phosphotyrosine sites (pTyr-Var adds point mutants) read by sequencing; higher = stronger binding; tyrosines were phosphorylated by kinases first
Holding throughout (conditions): peptide library: pTyr-Var

Experiment [1] addresses SHP2 C-SH2 domain wild-type.
In experiment [2] the target is SHP2 N-SH2 domain wild-type.
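Note: displayed peptides selected on beads carrying the immobilized SH2 domain, with library peptides lacking any tyrosine serving as negative controls.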

B1: ARHGAP1_Y365_R369C (peptide)
chain: LPEENYQVLCF
On to B1, for which the enrichment score with SHP2 C-SH2 domain E139D is inactive: 1.08; in experiment [1], inactive: 2.26; with SHP2 N-SH2 domain L43F, inactive: 1.41; with SHP2 N-SH2 domain T42A it was inactive: 0.808; with SHP2 N-SH2 domain T52S, inactive: 0.564; in experiment [2], inactive: 1.4.

B2: AR_Y858_R856C (peptide)
chain: CSRCFYQLTKL
B2: the enrichment score was inactive: 2.6 with SHP2 C-SH2 domain E139D; inactive: 2.6 in experiment [1]; inactive: 2.71 with SHP2 N-SH2 domain L43F; inactive: 2.37 with SHP2 N-SH2 domain T42A; inactive: 2.71 with SHP2 N-SH2 domain T52S; inactive: 2.03 in experiment [2].

B3: ATM_Y2019_D2016G (peptide)
chain: EPGSLYGCGGG
B3: the enrichment score was inactive: 0.489 with SHP2 C-SH2 domain E139D; inactive: 0.584 in experiment [1]; inactive: 0.54 in the experiment with SHP2 N-SH2 domain L43F; inactive: 0.465 with SHP2 N-SH2 domain T42A; inactive: 0.523 in the experiment with SHP2 N-SH2 domain T52S; inactive: 0.476 in experiment [2].

B4: ATM_Y1415_L1420F (peptide)
chain: KSPDSYQKILF
Regarding B4, the enrichment score is inactive: 0.889 with SHP2 C-SH2 domain E139D; inactive: 0.963 in experiment [1]; inactive: 0.911 in the experiment with SHP2 N-SH2 domain L43F; inactive: 1.43 with SHP2 N-SH2 domain T42A; inactive: 0.884 with SHP2 N-SH2 domain T52S; inactive: 0.939 in experiment [2].

B5: ASS1_Y359_R363L (peptide)
chain: LKGQVYILGLE
Take B5: the enrichment score in the experiment with SHP2 C-SH2 domain E139D is inactive: 1.37; in experiment [1], inactive: 0.938; in the experiment with SHP2 N-SH2 domain L43F, inactive: 0.932; in the experiment with SHP2 N-SH2 domain T42A, inactive: 1.05; with SHP2 N-SH2 domain T52S, inactive: 1.07; in experiment [2] it was inactive: 0.916.

B6: ARMC9_Y107_YF (peptide)
chain: IHFAIYLLKFS
For B6, the enrichment score is active: 3.22 with SHP2 C-SH2 domain E139D; inactive: 2.54 in experiment [1]; inactive: 2.76 with SHP2 N-SH2 domain L43F; inactive: 2.48 with SHP2 N-SH2 domain T42A; inactive: 2.61 in the experiment with SHP2 N-SH2 domain T52S; inactive: 2.56 in experiment [2].

B7: ASB2_Y162 (peptide)
chain: RETPLYKACER
Consider B7, for which the enrichment score is inactive: 0.819 with SHP2 C-SH2 domain E139D; inactive: 0.678 in experiment [1]; inactive: 0.387 with SHP2 N-SH2 domain L43F; inactive: 0.559 in the experiment with SHP2 N-SH2 domain T42A; inactive: 0.488 with SHP2 N-SH2 domain T52S; inactive: 0.494 in experiment [2].

B8: AR_Y916_K911R (peptide)
chain: RVKPIYFHTQG
For B8, the enrichment score in the experiment with SHP2 C-SH2 domain E139D was active: 5.69; in experiment [1], active: 4.51; with SHP2 N-SH2 domain L43F, active: 5; with SHP2 N-SH2 domain T42A it was active: 3.6; with SHP2 N-SH2 domain T52S, active: 4.75; in experiment [2], active: 4.47.

B9: ASS1_Y113_G117S (peptide)
chain: REGAKYVSHSA
Take B9: the enrichment score in the experiment with SHP2 C-SH2 domain E139D was inactive: 0.529; in experiment [1] it was inactive: 0.492; in the experiment with SHP2 N-SH2 domain L43F, inactive: 0.465; in the experiment with SHP2 N-SH2 domain T42A it was inactive: 0.437; with SHP2 N-SH2 domain T52S, inactive: 0.493; in experiment [2], inactive: 0.479.

B10: ASS1_Y322_G324S (peptide)
chain: FAELVYTSFWH
With B10, the enrichment score in the experiment with SHP2 C-SH2 domain E139D is inactive: 2.02; in experiment [1], inactive: 1.73; with SHP2 N-SH2 domain L43F, inactive: 2.08; with SHP2 N-SH2 domain T42A, inactive: 1.49; with SHP2 N-SH2 domain T52S it was inactive: 1.69; in experiment [2], inactive: 1.71.

B11: ASS1_Y83_R86C_YF (peptide)
chain: QSSALYEDCFL
Regarding B11, the enrichment score with SHP2 C-SH2 domain E139D was inactive: 1.05; in experiment [1] it was inactive: 1.12; with SHP2 N-SH2 domain L43F it was inactive: 0.818; with SHP2 N-SH2 domain T42A it was inactive: 0.757; with SHP2 N-SH2 domain T52S it was inactive: 0.995; in experiment [2] it was inactive: 1.05.

B12: ARCN1_Y310 (peptide)
chain: ISDDKYGRIRL
With B12, the enrichment score was inactive: 0.656 with SHP2 C-SH2 domain E139D; inactive: 0.728 in experiment [1]; inactive: 0.587 with SHP2 N-SH2 domain L43F; inactive: 0.586 in the experiment with SHP2 N-SH2 domain T42A; inactive: 0.591 with SHP2 N-SH2 domain T52S; inactive: 0.755 in experiment [2].

B13: ARFGAP3_Y473_Q468H (peptide)
chain: HPAGNYSLSSV
As for B13, the enrichment score was inactive: 0.744 with SHP2 C-SH2 domain E139D; inactive: 0.764 in experiment [1]; inactive: 0.709 in the experiment with SHP2 N-SH2 domain L43F; inactive: 0.858 with SHP2 N-SH2 domain T42A; inactive: 1.03 with SHP2 N-SH2 domain T52S; inactive: 0.656 in experiment [2].

B14: ASS1_Y87_R86H (peptide)
chain: LYEDHYLLGTS
On to B14, for which the enrichment score was inactive: 0.947 in the experiment with SHP2 C-SH2 domain E139D; inactive: 0.929 in experiment [1]; inactive: 1.29 with SHP2 N-SH2 domain L43F; inactive: 1.23 with SHP2 N-SH2 domain T42A; inactive: 1.36 with SHP2 N-SH2 domain T52S; inactive: 1.43 in experiment [2].

B15: ASIC2_Y357_D354G (peptide)
chain: EKGSNYCLCRT
Consider B15, for which the enrichment score in the experiment with SHP2 C-SH2 domain E139D was inactive: 0.676; in experiment [1] it was inactive: 0.527; with SHP2 N-SH2 domain L43F, inactive: 0.759; with SHP2 N-SH2 domain T42A it was inactive: 0.482; with SHP2 N-SH2 domain T52S, inactive: 0.642; in experiment [2] it was inactive: 0.69.

B16: ARFGEF2_Y797 (peptide)
chain: MTKEQYIKMNR
In the case of B16, the enrichment score is inactive: 0.925 in the experiment with SHP2 C-SH2 domain E139D; inactive: 0.676 in experiment [1]; inactive: 0.621 with SHP2 N-SH2 domain L43F; inactive: 0.717 with SHP2 N-SH2 domain T42A; inactive: 0.715 with SHP2 N-SH2 domain T52S; inactive: 0.758 in experiment [2].

B17: ASS1_Y83_S79P (peptide)
chain: QPSALYEDRYL
As to B17, the enrichment score with SHP2 C-SH2 domain E139D was inactive: 0.47; in experiment [1], inactive: 0.604; with SHP2 N-SH2 domain L43F it was inactive: 1.34; with SHP2 N-SH2 domain T42A it was inactive: 0.612; in the experiment with SHP2 N-SH2 domain T52S, inactive: 0.557; in experiment [2] it was inactive: 1.12.

B18: ASL_Y376 (peptide)
chain: TDLAYYLVRKG
Consider B18, for which the enrichment score was inactive: 0.818 with SHP2 C-SH2 domain E139D; inactive: 0.698 in experiment [1]; inactive: 0.717 in the experiment with SHP2 N-SH2 domain L43F; inactive: 0.836 with SHP2 N-SH2 domain T42A; inactive: 0.779 with SHP2 N-SH2 domain T52S; inactive: 0.608 in experiment [2].

B19: AR_Y552_P549S (peptide)
chain: VLSIDYYFPPQ
With B19, the enrichment score is inactive: 1.93 with SHP2 C-SH2 domain E139D; inactive: 2.25 in experiment [1]; inactive: 2.28 in the experiment with SHP2 N-SH2 domain L43F; inactive: 2.44 with SHP2 N-SH2 domain T42A; inactive: 2.51 with SHP2 N-SH2 domain T52S; inactive: 1.94 in experiment [2].
